Biological target: TNF-alpha
Experiment: cell-based or functional assay

Binder | IC50 (WEHI Assay), normalized to TNFR-h(1)Fc wt (fold of wt (normalized)) | IC50 (ng/ml), WEHI assay as in Example 3
TNFR2-h(1)Fc (Fc fusion) LPAQVAFTPYAPEPGSTCRLREYYDQTAQMCCSKCSPGQHAKVFCTKTSDTVCDSCEDSTYTQLWNWVPECLSCGSRCSSDQVETQACTREQNRICTCRPGWYCALSKQEGCRLCAPLRKCRPGFGVARPGTETSDVVCKPCAPGTFSNTTSSTDICRPHQICNVVAIPGNASMDAVCTSTSPTRSMAPGAVHLPQPVSTRSQHTQPTPEPSTAPSTSFLLPMGPSPPAEGSTGD[… human IgG1 Fc with changes …] | 1 | 
CΔ46 TNFR2-h(2)Fc (Fc fusion) LPAQVAFTPYAPEPGSTCRLREYYDQTAQMCCSKCSPGQHAKVFCTKTSDTVCDSCEDSTYTQLWNWVPECLSCGSRCSSDQVETQACTREQNRICTCRPGWYCALSKQEGCRLCAPLRKCRPGFGVARPGTETSDVVCKPCAPGTFSNTTSSTDICRPHQICNVVAIPGNASMDAVCTSTSPTRSMAPTG[… human IgG1 Fc and a few adjoining residues …] |  | 10.4 ng/mL

From patent US20130084291A1
